± gives the standard deviation of the averaged measurements. The full ranking holds about 33,000 sequences; the median of “E-score (dimensionless, -0.5 to 0.5)” is about -0.049, and the highest 2% start at about 0.37. The list shows a part of the results.
System: T1, PmTbr T-box DNA-binding domain (GST fusion)
T1 sequence: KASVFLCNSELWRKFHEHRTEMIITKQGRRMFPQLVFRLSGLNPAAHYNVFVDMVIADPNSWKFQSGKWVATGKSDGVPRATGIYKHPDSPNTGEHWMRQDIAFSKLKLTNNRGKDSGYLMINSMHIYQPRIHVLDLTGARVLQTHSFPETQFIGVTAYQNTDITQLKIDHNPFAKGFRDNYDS
Test: PBM E-score of 8-mer (E-score (dimensionless, -0.5 to 0.5)); Tbr is Tbrain of the sea star Patiria miniata (Pm) or the sea urchin Strongylocentrotus purpuratus (Sp); higher = stronger binding preference; most listed sequences are background and not binding sites
Conditions: the construct has about 5 more residues each side
Description: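 Universal protein-binding microarray (Agilent AMADID 016060, 60-bp probes with a 35-bp variable region) incubated with 200 nM GST-fused Patiria miniata Tbr T-box DNA-binding domain (residues 272-466) in PBS pH 7.5. Scored for every ungapped 8-mer (given with its reverse complement) by the Universal PBM Analysis Suite as E-score (modified Wilcoxon-Mann-Whitney enrichment, range -0.5 to 0.5; >0.45 counts as bound) and Z-score of median probe intensity. Two replicate arrays (datasets 1 and 2).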
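Note: 200 nM protein in PBS on universal arrays averaged over duplicate arrays.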

Sequence | PBM E-score of 8-mer
GTCTCCCA | -0.162 ± 0.037
ACGTTAAC | 0.201 ± 0.029
CGAAGATA | 0.0221 ± 0.037
ACATTCAC | 0.251 ± 0.026
CATCCTTA | 0.0522 ± 0.0077
AGAAGGGG | -0.0268 ± 0.057
CCTGCGCG | 0.173 ± 0.017
CCGCCTCA | -0.0274 ± 0.023
CTCTTGGA | -0.206 ± 0.04
ATTGACTA | -0.317 ± 0.025
CCAGGGAG | -0.215 ± 0.037
GGCCGTCA | 0.0329 ± 0.017
GAAATCTC | 0.0395 ± 0.048
CGCAATAA | -0.0672 ± 0.051
ATGTGTGC | 0.219 ± 0.016
CTTGCGGA | 0.0704 ± 0.066
TAGTGCAA | 0.267 ± 0.055
CATAACGA | -0.176 ± 0.016
ATCTAAGA | -0.318 ± 0.07
ACGTAACA | 0.0723 ± 0.072
AAGGGAAC | -0.208 ± 0.072
ACGGCCGT | 0.0556 ± 0.068
GGACCGAA | -0.15 ± 0.032
ATTACAGG | -0.115 ± 0.1
ATGACAGA | -0.0211 ± 0.00092

Sequence | PBM E-score of 8-mer
ACATATAA | -0.0564 ± 0.075
AACTACGT | -0.122 ± 0.092
GTTAGCCA | 0.0261 ± 0.045
GCCGGCAC | 0.15 ± 0.04
GGATGCAC | -0.117 ± 0.1
AGTTGGTC | -0.129 ± 0.036
ATTCGAAA | 0.0548 ± 0.085
GGGGCCAC | -0.105 ± 0.045
CAACAGCG | 0.09 ± 0.052
ACGCTCGG | -0.0371 ± 0.064
AACGCCCT | 0.286 ± 0.0082
CGGAGGAG | 0.0613 ± 0.045
GAGGGACC | -0.204 ± 0.011
CTTAAGTC | -0.115 ± 0.032
CAAATCGC | 0.233 ± 0.027
AAAACGAT | -0.116 ± 0.0025
CAAGGAGA | -0.147 ± 0.071
ATTATACA | -0.23 ± 0.07
CCGAACCG | -0.243 ± 0.11
AGCGACAT | 0.184 ± 0.018
GGCGGTGA | 0.0517 ± 0.094
ACCTTTAC | 0.161 ± 0.0072
ACGGCTAA | -0.195 ± 0.092
GCAGTCGA | -0.103 ± 0.045
CGCGCCCA | 0.174 ± 0.03

Sequence | PBM E-score of 8-mer
TAACTTAA | -0.107 ± 0.048
TATCAACA | 0.0781 ± 0.09
AACAGTGC | 0.0577 ± 0.058
CTTAATAA | -0.304 ± 0.1
GAGACAAA | 0.0638 ± 0.036
CACGAGTG | 0.249 ± 0.005
GAAATAAC | 0.214 ± 0.003
ACAGAAAG | -0.169 ± 0.0034
AGAGTGTC | 0.385 ± 0.0076
CTCAAAGA | -0.255 ± 0.014
ATATGCAT | -0.105 ± 0.014
CAGGTCCC | -0.0463 ± 0.078
AGCACATG | 0.133 ± 0.0018
GTATAGTA | -0.165 ± 0.0065
ATGAAGTA | -0.255 ± 0.027
AGTTCAGC | -0.0543 ± 0.047
AATCTCGT | -0.0385 ± 0.012
CCTCACAA | 0.155 ± 0.016
TAAAAATA | -0.00747 ± 0.055
GAATATAC | -0.167 ± 0.026
CGATTGGA | -0.235 ± 0.032
GTCGTCAA | 0.241 ± 0.028
AACAACAG | -0.024 ± 0.086
CAAGGACA | -0.161 ± 0.012
GGGCACTA | -0.147 ± 0.02

Sequence | PBM E-score of 8-mer
ACTATAAA | -0.202 ± 0.022
ATATCTTG | -0.114 ± 0.022
AATCGACG | 0.135 ± 0.0088
CATAGTCG | 0.0252 ± 0.079
CTGGTAGC | 0.0265 ± 0.042
ACCGGACG | -0.00851 ± 0.03
CGTATTGA | -0.122 ± 0.0047
AAGAATGC | -0.155 ± 0.071
ACCCTCCG | -0.0724 ± 0.014
AGCGCTTG | -0.02 ± 0.022
GTGGTAAC | 0.161 ± 0.021
ATATGGAA | -0.229 ± 0.0052
CGTCAAAA | 0.316 ± 0.0064
ACGACTAC | -0.0417 ± 0.085
GCTGTGAC | 0.208 ± 0.037
ATCCTCCA | -0.0688 ± 0.099
TCTGTTCA | 0.0089 ± 0.041
CTATAGGA | -0.2 ± 0.065
CAACAGTG | 0.159 ± 0.033
ACACCCCA | 0.382 ± 0.015
CTACTACA | -0.157 ± 0.027
ACTATGAG | -0.17 ± 0.049
CGATTGAG | -0.202 ± 0.038
GAATTATA | -0.0658 ± 0.064
AATGTCGA | 0.0192 ± 0.036

Sequence | PBM E-score of 8-mer
GGAAGAAC | -0.227 ± 0.041
AGGAGTCA | -0.0195 ± 0.023
CGACGACA | 0.147 ± 0.018
ACCACGGC | 0.0393 ± 0.052
CGTTCGAG | -0.136 ± 0.0015
CAATTGTC | 0.226 ± 0.044
ACACTACG | 0.283 ± 0.0065
GACTTATA | 0.0852 ± 0.044
GCATTGTA | 0.00576 ± 0.00042
ATCTCGGA | -0.299 ± 0.016
AGTGTCGA | 0.4188 ± 0.0041
TTCATAAA | -0.114 ± 0.074
GGCGACGA | 0.195 ± 0.0081
CGGGCTTC | -0.245 ± 0.033
ACAGGAAC | -0.0466 ± 0.036
AAATGCGA | -0.0108 ± 0.0092
ACGTGGCA | 0.232 ± 0.032
CCGCCTCG | -0.00885 ± 0.021
AGGTTGTA | 0.0566 ± 0.027
ACCCACGG | -0.132 ± 0.022
ACGATATA | -0.174 ± 0.0053
CACAGAAG | 0.127 ± 0.012
CCTCCAAC | -0.0441 ± 0.032
TCATCCGA | -0.203 ± 0.012
TAGCAGCA | 0.031 ± 0.019

Sequence | PBM E-score of 8-mer
CCGACGCG | 0.164 ± 0.026
TAATGGGA | -0.0306 ± 0.0075
ATATAAGC | -0.204 ± 0.018
ACATGCTC | -0.0798 ± 0.051
CCGTGCCA | 0.228 ± 0.041
GGCAAAAC | -0.016 ± 0.018
CACGAAAC | 0.127 ± 0.03
GCAATACC | -0.0713 ± 0.099
GCGACCTA | -0.0636 ± 0.051
AGGACAAC | -0.174 ± 0.1
GCTGGTGA | 0.0996 ± 0.0097
CCTAAGCG | -0.0363 ± 0.022
GAAATTTA | -0.13 ± 0.042
ATAAAAGG | 0.04207 ± 2.8e-05
GGAAAGAC | 0.045 ± 0.021
TCTATTAA | -0.084 ± 0.023
AGTCCAAG | -0.366 ± 0.039
GAGTCGGA | -0.263 ± 0.045
GGTGCAAC | 0.299 ± 0.033
AGCTCGCG | 0.291 ± 0.015
ACGCCGAG | 0.0516 ± 0.0092
AGGACGCG | -0.0478 ± 0.068
CACGACCG | -0.0865 ± 0.01
AAAAGACG | -0.115 ± 0.073
ACGTCTGC | -0.0774 ± 0.02

Sequence | PBM E-score of 8-mer
ACAAGTTA | 0.129 ± 0.0067
CAGTAGAG | 0.0828 ± 0.0074
CTGGCAAG | -0.0588 ± 0.035
AGCTTATG | -0.231 ± 0.017
ATTATCTC | 0.074 ± 0.024
TAAGGAAA | -0.1039 ± 0.00074
CGGTTCGA | -0.0167 ± 0.018
AGAGCCGG | -0.259 ± 0.087
ATTGTTAC | 0.194 ± 0.057
GGCTGGTA | -0.198 ± 0.088
CCGATTCC | -0.294 ± 0.067
CCATCGGG | -0.0661 ± 0.0044
AGGTGCAG | 0.307 ± 0.015
AGTTGTGC | 0.0449 ± 0.04
ATACTGGC | -0.143 ± 0.011
GATCCACC | 0.0196 ± 0.009
AACGTGGT | 0.0187 ± 0.012
GAATTCTC | 0.159 ± 0.056
AGAGCCCA | -0.145 ± 0.028
GAAAGCCC | -0.23 ± 0.092
ATGAAGAA | -0.0724 ± 0.011
GCTCATAC | -0.037 ± 0.085

Source: the supplement of paper PMC4166925
